Source: PubChem BioAssay (Tox21)
“And” between values parts separate entries of the source, which are not always exact repeats. Identical values can stand only once. The shares of active, inactive and inconclusive entries below differ from those in the screen. Calls come from the whole dose curve; as a rule, active = well fitted cell-killing curve with a large enough effect in the repeat runs; inconclusive = weak or mixed curves, or effect the other way; inactive = no such curve, though single readings can be large or run the other way. Potencies of inconclusive entries are doubtful fits and often do not repeat.

assay: qHTS assay to identify small molecule agonists of the RXR signaling pathway - cell viability counter screen (AID 1159529); conditions: RXR-alpha-bla HEK293T viability, CellTiter-Glo, 16 h; series mostly up to 76.8 µM; note: nearly all actives have a fitted effect of over 50% in size
Summary of the method: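 Luminescence from CellTiter-Glo (30 min, RT) measured viability in the same wells as the beta-lactamase reporter readout. Cells: GeneBLAzer RXR-alpha HEK 293T, 2% charcoal-stripped FBS. Compound exposure 16 hr, 37 C.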
Potency is the fitted concentration of half-maximal effect; tags give direction and shape of the fitted curve.

Row | Structure (SMILES) | Potency
1 | O=C=Nc1ccc(Cl)c(Cl)c1 | inconclusive: 42.9 µM [cytotoxic, partial curve]
2 | CCOC(=O)[C@H](CCc1ccccc1)N[C@H]1CCc2ccccc2N(CC(=O)O)C1=O | inconclusive: 26.8 µM [cytotoxic]
3 | CCc1cc(Cl)c(OC)c(C(=O)NC[C@@H]2CCCN2CC)c1O | inconclusive: 5.35 µM [cytotoxic, partial curve]
4 | CC/C=C1/OC(=O)c2ccccc21 | inconclusive: 53.7 µM [cytotoxic, single point]
5 | Cc1cccc(N(C)C(=S)Oc2ccc3c(c2)CCC3)c1 | inconclusive: 4.77 µM [cytotoxic, partial curve, poor fit]
6 | O=C=Nc1cccc(C(F)(F)F)c1 | inconclusive: 17.3 µM [cytotoxic]
7 | O=C(/C=C/C=C/c1ccc2c(c1)OCO2)N1CCCCC1 | inconclusive: 6.93 µM [cytotoxic, full curve] and inconclusive: 9.77 µM [cytotoxic, full curve]
